Measured values taken from the supplement of paper PMC3334620.
Over roughly 33,000 sequences, “E-score (-0.5 to 0.5)” has its median near -0.011; the highest 2% begin near 0.28. The list shows a part of the results.

Target: T1, Gcr1 (UniProt P07261)
T1 sequence: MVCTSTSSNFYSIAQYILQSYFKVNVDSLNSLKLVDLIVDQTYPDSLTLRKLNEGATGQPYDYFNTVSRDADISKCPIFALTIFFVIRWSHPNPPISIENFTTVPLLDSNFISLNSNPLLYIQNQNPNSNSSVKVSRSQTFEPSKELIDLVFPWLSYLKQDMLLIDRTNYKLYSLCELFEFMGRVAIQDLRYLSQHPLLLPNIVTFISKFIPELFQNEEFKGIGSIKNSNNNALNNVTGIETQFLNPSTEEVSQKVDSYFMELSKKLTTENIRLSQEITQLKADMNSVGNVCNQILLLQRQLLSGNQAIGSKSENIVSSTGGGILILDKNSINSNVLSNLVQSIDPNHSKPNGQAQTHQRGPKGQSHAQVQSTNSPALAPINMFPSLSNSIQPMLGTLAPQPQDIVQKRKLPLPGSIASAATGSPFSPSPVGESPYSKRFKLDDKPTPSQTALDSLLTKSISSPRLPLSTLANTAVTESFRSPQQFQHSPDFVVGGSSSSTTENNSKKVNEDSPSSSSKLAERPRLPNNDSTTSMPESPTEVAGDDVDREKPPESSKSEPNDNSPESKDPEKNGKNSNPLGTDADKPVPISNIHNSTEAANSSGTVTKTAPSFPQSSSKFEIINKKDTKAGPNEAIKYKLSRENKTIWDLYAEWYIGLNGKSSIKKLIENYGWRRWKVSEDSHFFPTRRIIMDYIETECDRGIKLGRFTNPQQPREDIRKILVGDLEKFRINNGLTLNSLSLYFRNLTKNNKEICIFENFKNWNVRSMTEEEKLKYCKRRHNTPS
Test: PBM E-score (8-mer binding enrichment) (E-score (-0.5 to 0.5)); higher = stronger / more preferred TF binding; most listed sequences are background and not binding sites
Settings: protein concentration: 100 nM; construct: GST-full length
Procedure, shortened: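 Full-length yeast transcription factors or their DNA-binding domains, GST-tagged and expressed with PURExpress, were applied at about 100-200 nM to universal all-10-mer Agilent arrays. These arrays had been made double-stranded by primer extension on fresh or once-stripped slides. Detection used fluorescent anti-GST, normalisation used masliner, and E-scores for ungapped eight-base words pooled with reverse complements came from the Universal PBM Analysis Suite.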

Row | Sequence | PBM E-score
1 | GAAGCTAA | 0.312
2 | AGCTCGAT | -0.0366
3 | GATCTGGA | 0.0947
4 | CCCCCGTC | -0.14
5 | AATTCTCG | 0.0938
6 | ACACCCTG | -0.0426
7 | ACAAACTA | 0.0419
8 | ATTCTTAG | 0.033
9 | GGCATCTA | 0.347
10 | GGACGTCA | -0.115
11 | AATGCAAA | 0.0621
12 | GATTAACC | -0.0563
13 | AATGTAAT | 0.0846
14 | AGAACGCC | 0.062
15 | CCGCGTCC | 0.182
16 | GGCATGAA | -0.0265
17 | AGTAAGTA | -0.0361
18 | ACCCTGTC | -0.0299
19 | AATCCGGG | 0.0188
20 | CCGGCGAA | -0.0464
21 | CGGTCCCA | 0.0526
22 | AATGTTGT | -0.0341
23 | CTCGCGAG | -0.113
24 | GTCACGTA | -0.251
25 | AATAGATA | 0.0158

Row | Sequence | PBM E-score
26 | AGGCACTC | 0.034
27 | GCTTTTCA | 0.135
28 | CGGCTACA | 0.23
29 | CTCTCCCC | -0.14
30 | CGTCACGA | 0.108
31 | CAAATGGG | -0.0381
32 | CGCAGGCA | -0.0288
33 | CCAACCAG | 0.0242
34 | ATACGTAA | 0.053
35 | ATGGTCTC | -0.136
36 | ATCGAGCA | 0.0359
37 | ACTGGTTC | -0.00118
38 | CCGCTGCG | 0.0151
39 | ACTATTAT | 0.123
40 | GGAGCCAC | 0.289
41 | GTTCCACA | 0.115
42 | CGGTCGCA | -0.09
43 | GGGCACCA | 0.364
44 | CTCTCTAC | -0.278
45 | CCGACACG | 0.03
46 | ATGGGTGA | -0.0671
47 | CACGCCGA | -0.207
48 | AGGTACAC | -0.087
49 | TAGACCCA | -0.089
50 | CCACGGGA | 0.0479

Row | Sequence | PBM E-score
51 | GATTATCC | -0.103
52 | CACCCACA | 0.127
53 | CAGTGAGC | -0.272
54 | TCCTCCCA | -0.206
55 | CCGCCAGG | -0.114
56 | ACTGTAGC | -0.174
57 | AAAAAAAA | 0.243
58 | CTCTAGCA | 0.053
59 | AATCTTGG | 0.245
60 | CGGCCGTA | -0.0291
61 | AGGAAGGG | -0.0994
62 | ACCCGAAC | 0.00324
63 | GAAGAAGC | 0.318
64 | TGCGACAA | 0.0608
65 | ATGGTACA | 0.105
66 | AGGGGTTG | 0.0343
67 | ATTAGGGG | 0.11
68 | GGAGCCAA | 0.33
69 | GCCGGGGA | -0.049
70 | AACGCGGA | -0.102
71 | GCTACTAA | 0.111
72 | ATAGCATA | -0.0239
73 | CGCCCCCA | 0.173
74 | AAGCAGAA | 0.0924
75 | AATTGGGC | 0.0472

Row | Sequence | PBM E-score
76 | CCTAGTGC | -0.0169
77 | CCGCAGGC | 0.0198
78 | CATTCGAC | 0.0126
79 | ACCCTACA | -0.121
80 | ACGAGACT | -0.16
81 | CTAGCAAA | 0.00946
82 | AAGGAGAT | -0.109
83 | AAGCCACT | 0.128
84 | ACCCCTCC | -0.0116
85 | TCCACAAA | 0.288
86 | ACTCAACT | -0.0211
87 | AATCCTAA | 0.205
88 | AATATCAT | 0.0703
89 | AACGTCTG | -0.089
90 | GAAAGCTA | -0.223
91 | AGGGGTAG | 0.187
92 | AGACAGTA | -0.222
93 | GATTTTCA | 0.0679
94 | ACGTATGA | -0.145
95 | GGTAACGA | -0.115
96 | ACGATTTA | 0.0363
97 | CCGGAATC | 0.219
98 | CGGGGCAC | 0.126
99 | TGAATGCA | -0.0305
100 | CGTTCCCC | -0.0544

Row | Sequence | PBM E-score
101 | CTACGGCC | -0.309
102 | TACAGTAA | 0.0827
103 | CTTATGAA | -0.0404
104 | CGTTATCA | 0.136
105 | AACCCCCT | -0.273
106 | ATAGGTTC | 0.14
107 | GTTCGAAA | -0.0133
108 | AAGTTTTA | 0.131
109 | ACTCTGTA | -0.124
110 | AAAGTAGC | 0.18
111 | AAGCAATC | -0.119
112 | CATGGAAG | -0.0984
113 | ATGACGGG | -0.143
114 | ATTACATG | 0.143
115 | CCCTTCGA | -0.234
116 | GAAATCGA | -0.125
117 | TGTTCGAA | -0.0844
118 | AACATGAA | 0.0344
119 | ACTCGTTG | 0.00721
120 | GTGGGGTA | 0.286
121 | GAGGTTGC | 0.128
122 | AGAACTCC | -0.122
123 | TACGTTGA | -0.0995
124 | CGCTCTCA | -0.0635
125 | AATAGGAT | 0.187

Row | Sequence | PBM E-score
126 | GGAATTAC | 0.105
127 | CGAGGCAC | -0.232
128 | CCGTAATA | 0.155
129 | CTCGTTTC | -0.0255
130 | CGAGAGAA | 0.0297
131 | AAGACAGC | -0.151
132 | ATTCACCC | -0.0258
133 | ATTTTAAC | 0.107
134 | TCCCGGAA | 0.15
135 | AGCTTCAA | 0.0987
136 | TAGTGTCA | 0.0551
137 | AGAATCCT | 0.252
138 | ATATAGTC | -0.0702
139 | ACCACTGA | 0.0982
140 | CGTGTATC | 0.0534
141 | CCCCCTAC | -0.129
142 | CCAATGAA | 0.00946
143 | ACACCCGA | -0.0231
144 | GGAGTACC | -0.0959
145 | ATGAAATC | 0.0997
146 | AAGATTCC | 0.271
147 | GCTGAACC | -0.139
148 | CGCCCGGC | -0.0364
149 | AGGGCGTG | -0.126
150 | CCCTCGTA | 0.0722

Row | Sequence | PBM E-score
151 | CATTGACA | -0.0443
152 | AGTATATG | -0.00906
153 | GGAACCGA | 0.145
154 | CTGCATGA | -0.0692
155 | AACGACGT | 0.0753
156 | CACGAAGG | -0.0187
157 | ATGACCAT | 0.0994
158 | AACGCCAT | 0.0568
159 | CCAACGCG | -0.0273
160 | GAAGCGGA | 0.328
161 | AGGACTAT | 0.0596
162 | GAGCAAAC | -0.217
163 | CTATCTTC | -0.105
164 | GCAAACGA | 0.013
165 | ACGCGAGA | -0.0237
166 | CATCACAG | -0.254
167 | CCCCTAAC | 0.0809
168 | CCCGGCGA | -0.139
169 | GACAGGTA | -0.0352
170 | AGGGAGAG | -0.108
171 | GGATCGCC | 0.0745
172 | AAAGACGA | 0.097
